# Source: PubChem BioAssay AID1508623 (National Center for Advancing Translational Sciences (NCATS), 2021)
# The whole screen tested about 48,000 compounds, of which about 450 (0.94%) were called active. Not shown: some 19% with an inconclusive outcome. Calls follow the shape of the dose curve; as a rule, active = well fitted inhibition curve with a large enough effect; inconclusive = small, poorly fitted or top-dose-only effect; inactive = no such curve, though single readings can be large or run the other way. The list shows a part of the results.
# Experiment: Primary qHTS for Identification of Small Molecule Inhibitors of Huntingtin Promoter Activity; also: nearly all actives have a fitted effect of over 50% in size
# Details: HEK293 HTT promoter firefly luciferase reporter (activity 0% = vehicle and -100% = no light), 24 h; series mostly up to 57.5 µM; activity change, negative = inhibition: at the top concentration
# Summary of the method: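 Quantitative HTS used concentration series of up to 57.5 uM final on HEK293 luciferase reporter cells, 24 h at 37 degrees C. Readout was Dual-Glo firefly luminescence.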
# Potency is read from the fitted curve at half-maximal effect.
SMILES,"activity change, negative = inhibition",Potency
COc1ccc(NC(=O)c2cc3c(=O)n(C)c4cc(Cl)ccc4c3s2)cc1Cl,inactive: -4.05%,
Cc1ccc(CCNC(=O)c2oc(=O)c3ccccc3c2-c2ccc(C)cc2)cc1,inactive: -19.5%,
CC1CCN(S(=O)(=O)c2ccc3c(ccc(=O)n3CC(=O)NCc3ccccc3)c2)CC1,inactive: -21.3%,
CCCS(=O)(=O)c1nc(S(=O)(=O)c2ccc(C)cc2)c(NCC(C)C)s1,inactive: -21.4%,
CCC(=O)Nc1ccc(C)cc1-c1nc2ccccc2n(CC(=O)c2ccc(C)cc2)c1=O,inactive: 1.63%,
CC(C)(C)OC(=O)N1CCC(c2c(C(=O)NCc3ccco3)cnn2-c2ccc(F)cc2F)CC1,inactive: -6.32%,
CCCCNC(=O)Cn1c(=O)cc(C)c2c(C)nn(-c3cccc(Cl)c3C)c21,inactive: -16.9%,
CCOC(=O)c1c(C)c(C(=O)NCc2ccc(Cl)cc2)c(C)n1C,inactive: -5.88%,
COc1ccccc1NC(=O)C1=C(C)Nc2nc(-c3ccco3)nn2C1c1cccc(C)c1 (stereo not drawn),inactive: -27.3%,
CCc1ccc(-n2c(=O)c3c(C)c(C(=O)N(C)C)sc3n(CC(=O)Nc3cc(Cl)ccc3C)c2=O)cc1,inactive: 25.5%,
Cc1ccc(-c2noc(-c3ccc(NC4CCCC4)c([N+](=O)[O-])c3)n2)cc1,inactive: -2.8%,
CC(C)(C)OC(=O)N1CCC(c2nnc(SCc3ccccc3Cl)o2)CC1,inactive: -32.3%,
COc1ccc(Cl)cc1NC(=O)C(C)n1c(=O)cc(C(F)(F)F)c2c(C)nn(C)c21 (stereo not drawn),inactive: -11.9%,
Cc1ccc(Cn2ccn(Cc3ccc(C)cc3)c(=O)c2=O)cc1,inactive: 3.62%,
CC1CCc2onc(C(=O)N3CCN(c4ccc(Cl)cc4)CC3)c2C1 (stereo not drawn),inactive: -12.9%,
COc1ccc(N2C(=O)NC(NS(=O)(=O)c3ccc(NC(C)=O)cc3)(C(F)(F)F)C2=O)cc1 (stereo not drawn),inactive: -18.7% [at 11.5 µM],
CCOc1ccc(CNC(=O)CCCn2nc(C)c3c(C)n(-c4ccc(C)cc4)nc3c2=O)cc1,inactive: -22%,
CCOC(=O)OC(C)OC(=O)[C@@H]1N2C(=O)[C@@H](NC(=O)[C@H](N)c3ccccc3)[C@H]2SC1(C)C (stereo partly drawn),inactive: -0.85%,
CCc1ccc(NC(=O)Cn2cnc3nc4c(cc3c2=O)CCCC4)cc1,inactive: -1.7%,
CCOC(=O)c1cc2c(=O)n3ccccc3nc2n(CC(C)C)c1=NC(=O)C(C)(C)Oc1ccc(Cl)cc1,inactive: -12.8%,
Cc1ccc(C)c(N2CCN(C(=O)CCc3c(C)nc4c(c3C)c(=O)n(C)c(=O)n4C)CC2)c1,inactive: 3.06%,
COc1ccccc1CNC(=O)C1CCN(c2ncnc3c2nc2n3CCCCC2)CC1,inactive: -14.1%,
COc1ccc(C(CNC(=O)c2oc3ccccc3c2C)N2CCCCC2)cc1 (stereo not drawn),inactive: -10%,
CCc1ccc(-n2c3nc(=O)[nH]c(=O)c-3cc3c(C)nn(-c4ccccc4)c32)cc1,inactive: -8.84%,

SMILES,"activity change, negative = inhibition",Potency
Cc1noc(-c2ccc(N3CCCCC3C)c([N+](=O)[O-])c2)n1 (stereo not drawn),inactive: 38.9%,
COc1cc(Cl)c(C)cc1NC(=O)c1c(C)oc2nc(C)nc(N3CCCC3)c12,inactive: 14.4%,
CCc1nnc(NC(=O)CSc2nccn2Cc2ccccc2)s1,inactive: -28.5%,
Cc1ccc(-c2noc(-c3nnn(CC(=O)Nc4ccc(C)cc4Cl)c3N)n2)cc1,inactive: -6.72%,
CCC(=O)N1CCc2cc(CNS(=O)(=O)c3ccccc3F)ccc21,inactive: 29.8%,
Cc1cc(C)cc(NS(=O)(=O)c2ccc3[nH]cc(C(=O)N4CCCCC4)c(=O)c3c2)c1,inactive: 0%,
CCOc1ccccc1CNC(=O)c1ccc2c(c1)N(CC)CCS2,inactive: -22.7%,
COc1cccc(CNC(=O)C(Cc2ccccc2)NS(=O)(=O)c2ccc3c(c2)CCN3C(C)=O)c1 (stereo not drawn),inactive: -10.6%,
Cc1ccc(NC(=O)CCc2nc(-c3ccccc3F)no2)c(C)c1,inactive: -10%,
CCOc1cc2c(cc1OCC)C(CC(=O)OC)N(C(=O)Nc1cc(C)cc(C)c1)CC2 (stereo not drawn),inactive: -2.98%,
Cc1cccc(OCC(=O)Nc2nnc(S(=O)(=O)N3CCCCCC3)s2)c1,inactive: -6.37%,
Cc1ccc(-n2nc(C(=O)NC(C)C)c(=O)n(C)c2=O)cc1,inactive: -1.45%,
COc1cccc(OC(=O)CSc2nnc(-c3ccccc3OC)o2)c1,inactive: -10.8%,
O=c1cc(CN2CCN(S(=O)(=O)c3ccc(Cl)cc3)CC2)nc2sc(-c3ccccc3F)nn12,inactive: -20.2%,
CCOc1ccc(NS(=O)(=O)c2ccc3[nH]cc(C(=O)NCc4ccco4)c(=O)c3c2)cc1,inactive: -7.65%,
Cc1cccc(NC(=O)c2sc3nc4n(c(=O)c3c2C)N=C(c2ccc(F)cc2)CS4)c1C,inactive: -13.6%,
Cc1ccc(C)c(N2CCN(c3nc4ccccc4c4nc(CCn5nc(C)cc5C)nn34)CC2)c1,inactive: -1.79%,
CO/N=C(\C(=O)N[C@@H]1C(=O)N2C(C(=O)O)=C(CSc3nc(=O)c(O)nn3C)CS[C@H]12)c1csc(N)n1,inactive: 11.4%,
O=C(CSc1nc(-c2ccc(Cl)cc2)nc2c1Cc1ccccc1O2)N1CCCCC1,inactive: -6.69%,
Cc1ccc(N2C(=O)CS(=O)(=O)C23C(=O)N(Cc2cccc(F)c2)c2ccccc23)cc1Cl (stereo not drawn),inactive: -28%,
COc1ccc(Cl)cc1NC(=O)c1cc2nc(-c3ccc4c(c3)OCO4)cc(C(F)(F)F)n2n1,inactive: -2.58%,
COC(=O)Cn1c(=O)c2c(nc3n2CCN3c2cccc(C)c2)n(C)c1=O,inactive: 1.38%,
CCCCc1ccc(NC(=O)c2cc3c(=O)n4ccccc4nc3n2C)cc1,inactive: 4.65%,
COc1ccc2nc3sc(C(=O)Nc4ccccc4F)cc3cc2c1,inactive: 29.8%,

SMILES,"activity change, negative = inhibition",Potency
COc1ccc(NC(=O)CCCc2nc(-c3ccco3)no2)c(OC)c1,inactive: -15.1%,
CCN(CC)S(=O)(=O)c1ccc(NC(=O)[C@H](CSCc2ccccc2)N2Cc3ccccc3C2=O)cc1,inactive: 15.9%,
O=C(c1ccco1)N(Cc1cccnc1)c1nc2ccc(F)cc2s1,inactive: -12.8%,
CCc1ccc(C2C(C(=O)Nc3ccccc3)=C(C)Nc3c(C(=O)Nc4ccc(C)cc4)cnn32)cc1 (stereo not drawn),inactive: -24.4%,
COc1cc(OC)cc(-c2nc3n(n2)C(c2ccccc2F)C(C(=O)Nc2cccnc2)=C(C)N3)c1 (stereo not drawn),inactive: -26.6%,
Cc1ccc(S(=O)(=O)NCC(c2ccc(N(C)C)cc2)N2CCCC2)cc1 (stereo not drawn),inactive: -8.24%,
Cc1cc(C)cc(NC(=O)C2CCCN(c3nnc(C)c4c(C)n(-c5ccccc5)nc34)C2)c1 (stereo not drawn),inactive: -12.2%,
CCOC(=O)C1CCN(C(c2ccccc2)c2c(O)cc(C)n(Cc3ccco3)c2=O)CC1 (stereo not drawn),inactive: -0.277%,
CCc1c(C)c2ccc3c(c2oc1=O)CN(Cc1ccccc1)CO3,inactive: -36.4%,
COc1ccc(OCC(=O)Nc2nnc(S(=O)(=O)N3CCCCCC3)s2)cc1,inactive: -1.16%,
Cc1ccc(-n2c(CCC(=O)O)ccc2-c2cccs2)cc1C,inactive: 12.8%,
COc1cc(C2CC(=O)Nc3c2c(=O)[nH]c2nc4ccccc4n32)ccc1O (stereo not drawn),inactive: -9.43%,
CC1(C)C(=O)N(CC(=O)Nc2ccc(Cl)cc2)c2ccccc21,inactive: -22.4%,
CCC(C)NC(=O)c1cc2c(Cl)nc3ccc(C)cc3c2s1 (stereo not drawn),inactive: -5.03%,
COc1ccc(-c2nn3c(-c4ccc(OC)cc4)nnc3c3ccccc23)cc1,inactive: -0.22%,
CCc1nn2c(=O)cc(COC(=O)c3ccccc3NC(=O)COc3ccccc3C)nc2s1,inactive: -4.08%,
Cc1ccc2c(c1)cc(C(=O)Nc1ccccc1C)n2C,inactive: -5.78%,
Cc1ccc(NC(=O)Cn2c(=O)n(Cc3ccccc3)c(=O)c3c(C)c(C)sc32)c(C)c1,inactive: -5.79%,
CCC(Cc1ccccc1)NC(=O)c1ccc2nc(N3CCC(C)CC3)sc2c1 (stereo not drawn),,active: 1.26 µM
CCOC(=O)c1ccc(-n2c(N)c(C(=O)OC)c3nc4ccccc4nc32)cc1,inactive: -11.4%,
CCc1ccccc1NC(=O)C1=CC(c2ccc(OC)c(OC)c2)=NS(=O)(=O)N1C,inactive: -28.6%,
Cc1cccc(C)c1OCC(=O)NCC1(N2CCOCC2)CCCCC1,inactive: -28.1%,
CC1CCCN(c2csc3ccc(F)cc3c2=O)C1 (stereo not drawn),inactive: 61.1%,
COc1ccc(OC(=O)c2nc(SCc3ccc(C)cc3)ncc2Cl)cc1,inactive: 0.461%,

SMILES,"activity change, negative = inhibition",Potency
CCCOc1ccc(C(=O)Nc2cccc(-c3nc4ccccc4[nH]3)c2)cc1,inactive: -0.0878%,
Cc1ccc(-c2nc(C)c(CCNC(=O)C(=O)Nc3ccc4c(c3)OCCO4)s2)cc1,inactive: -5.58%,
CCC(CC)C(=O)Nc1cccc(-c2nc3cccnc3s2)c1C,inactive: -14%,
COc1ccc(-n2nc3ccc(NC(=O)c4cc5ccccc5o4)cc3n2)cc1Cl,inactive: -5.97%,
CCc1ccc(-c2nn(CC(=O)NC3CCCC3)c3c2cnc2ccc(C)cc23)cc1,inactive: -16.4%,
CC1(C)O[C@H]2[C@@H](O1)[C@@H](C(=O)Nc1ccccc1O)O[C@@H]1OC(C)(C)O[C@@H]12,inactive: -14.5%,
CCOc1cc(C2C(C(=O)OC)=C(C)NC3=C2C(=O)c2ccccc23)ccc1O (stereo not drawn),inactive: -20.7%,
FC(F)(F)c1ccccc1-n1ccnc1,inactive: 3.76%,
Cc1cccc(/C=C/c2onc(C)c2S(=O)(=O)N2CCC(C(=O)N3CCC(C)CC3)CC2)c1,inactive: -3.69%,
Cc1ccc(C(C)C)c(OCC(=O)Nc2c(C(=O)c3ccccc3)oc3ccccc23)c1,inactive: 13%,
Cc1ccc(NC(=O)c2sc3ccccc3c2Cl)cc1,inactive: 62.8%,
Cc1ccc(CN2C(=O)c3ccccc3C2C(=O)NC2CCCCCC2)cc1 (stereo not drawn),inactive: 6.6%,
CCOc1ccccc1NC(=O)c1c(C)cc(C)nc1SCC(=O)c1cccc(OC)c1,inactive: -27.8%,
COc1ccc(CNC(=O)CCn2nc(C)c3c(C)n(-c4ccccc4)nc3c2=O)cc1OC,inactive: -6.51%,
Cc1cccn2c(=O)c(/C=C(\C#N)c3nc4ccccc4n3C)c(Oc3ccc(Br)cc3)nc12,inactive: -3.21%,
Cc1ccc(NC(=O)CCCn2nc(C)c3c(C)n(-c4ccccc4)nc3c2=O)cc1Cl,inactive: -3.54%,
O=C(CN1CCN(c2ccc(Cl)cc2)CC1)Nc1ccc(F)cc1F,inactive: 18.7%,
CCOc1ccc(N(CC(=O)Nc2ccc(F)cc2F)S(=O)(=O)c2c(C)[nH]c(=O)[nH]c2=O)cc1,inactive: -21.2% [at 11.5 µM],
CN1C(=O)c2ccccc2Sc2ccc(NC(=O)Nc3ccccc3F)cc21,inactive: -1.7%,
COc1ccc(CN(CCC(c2ccc3c(c2)OCO3)c2ccccc2OC)C(C)=O)cc1 (stereo not drawn),inactive: -16.5%,
CCOCCCn1c(=N)c(S(=O)(=O)c2ccc(C)cc2)cc2c(=O)n3cccc(C)c3nc21,inactive: -1.48%,
